Publication PMC9693575, “Isopropyl Amino Acid Esters Ionic Liquids as Vehicles for Non-Steroidal Anti-Inflammatory Drugs in Potential Topical Drug Delivery Systems with Antimicrobial Activity” (International Journal of Molecular Sciences, 2022)

Excerpt: This study aims to compare the influence of amino acid structure on the physicochemical properties of NSAID salts with the isopropyl ester of amino acids.

| SMILES | Solubility in Water | Solubility in Water, as active substance | Solubility in Phosphate Buffer pH = 5.4 | Solubility in Phosphate Buffer pH = 5.4, as active substance | Solubility in Phosphate Buffer pH = 7.4 | Solubility in Phosphate Buffer pH = 7.4, as active substance |
| --- | --- | --- | --- | --- | --- | --- |
| CC[C@H](C)[C@H](N)C(=O)OC(C)C.COc1ccc2cc([C@H](C)C(=O)O)ccc2c1 [[L-IleOiPr][NAP], L-isoleucine isopropyl ester naproxenate] | 5.048 ± 0.027 g dm^−3 | 2.881 ± 0.027 gAS dm^−3 | 3.206 ± 0.017 g dm^−3 | 1.829 ± 0.017 gAS dm^−3 | 7.736 ± 0.030 g dm^−3 | 4.415 ± 0.030 gAS dm^−3 |
| CC(C)OC(=O)[C@@H](N)C(C)C.COc1ccc2cc([C@H](C)C(=O)O)ccc2c1 [[L-ValOiPr][NAP]] | 3.988 ± 0.020 g dm^−3 | 2.358 ± 0.020 gAS dm^−3 | 2.323 ± 0.033 g dm^−3 | 1.320 ± 0.033 gAS dm^−3 | 5.484 ± 0.012 g dm^−3 | 3.241 ± 0.012 gAS dm^−3 |
| COc1ccc2cc([C@H](C)C(=O)O)ccc2c1.CSCC[C@H](N)C(=O)OC(C)C [[L-MetOiPr][NAP], L-methionine isopropyl ester naproxenate] | 3.011 ± 0.038 g dm^−3 | 1.645 ± 0.038 gAS dm^−3 | 1.509 ± 0.015 g dm^−3 | 0.824 ± 0.015 gAS dm^−3 | 4.404 ± 0.033 g dm^−3 | 2.405 ± 0.033 gAS dm^−3 |
